This note sets out measurements from patent publication EP0369391A2, “N-substituted amides” (BOEHRINGER INGELHEIM PHARMACEUTICALS INC., priority 1988, dated 1990).

Assay [1] concerns the target Recombitant HIV Proteinase (Human immunodeficiency virus type 1 group M subtype B, UniProt P04585). The assay can be described thus: Selectivity assay: HIV proteinase. Format: biochemical. Particulars: IC50 of 5 or greater is considered inactive.
Assay [2] concerns the target Human Thrombin (Homo sapiens, UniProt P00734). In words: Selectivity assay: Human Thrombin. It is filed as biochemical. Particulars: IC50 of 5 or greater is considered inactive.

Take `CC(C)C(NC(=O)CN(C(=O)[C@@H](NC(=O)c1ccc(C(=O)NS(=O)(=O)c2ccc(Cl)cc2)cc1)C(C)C)C1Cc2ccccc2C1)C(=O)C(F)(F)F` (some centres unmarked) [Compound of Table III]: the IC50 (commonly the concentration needed to halve the response being measured) is 164 µM in assay [1] and > 6.55 µM in assay [2].
